In patent US20230058961A1, “SUBSTITUTED HETEROCYCLICS WITH THERAPEUTIC ACTIVITY IN HIV” (New York Blood Center, Inc., priority 2019, published 2023):

Key:
[1] = test system: recombinant CD4-dependent pseudovirus HIV-1ADA in CD4-negative Cf2Th-CCR5 cells; details: known from the literature; cited from earlier work
[2] = test system: recombinant CD4-dependent pseudovirus HIV-1ADA in CD4-negative Cf2Th-CCR5 cells; experiment: Infectivity of CD4-negative Cf2Th-CCR5 cells by CD4-dependent HIV-1ADA (entry agonist test); details: HIV-1ADA pre-treated with escalating concentrations, 48 h, FIG. 1
Description: FIG. 1 depicts the infectivity of CD4 negative Cf2Th-CCR5 cells by HIV-1NL4-3/ADA (CD4-dependent virus) in the presence of indicated control and subject compounds.
Compound C is known to be an entry agonist promoting CCR5 binding and enhancing HIV-1 entry into CD4-negative cells expressing CCR5 (Curreli, F. et al., Antimicrob Agents Chemother 58:5478-5491, 2014; Schon, A. et al., Biochemistry 45:10973-10980, 2006). […] Compound C was used as a control.
(§1) CD4-negative Cf2Th-CCR5 cells were plated at 6×10^3 cells/well in a 96-well tissue culture plate and incubated overnight. […] The luciferase activity was immediately measured to obtain the relative infection compared to the untreated control. The Relative virus infectivity indicates the amount of infection detected in the presence of the compounds divided by the amount of infection detected in the absence of the compounds.
as §1, with “Briefly, the” for “CD4-negative”, “plate.” for “plate and incubated overnight.”, “concerning” for “compared to”

**Q.** Which results are given for `CC1(C)CC(NC(=O)C(=O)Nc2ccc(Cl)cc2)CC(C)(C)N1` [Compound C]?
**A.** HIV-1 entry agonist property [1]: entry agonist; HIV-1 infectivity in CD4-negative Cf2Th-CCR5 cells (relative virus infectivity) [2]: enhanced the infection
